Experimental data published in article PMC9871955, “High-throughput screening of SARS-CoV-2 main and papain-like protease inhibitors” (Protein & Cell, 2022).

Test system: SARS-CoV-2
Test: microbe, parasite or virus in culture
Details: Severe acute respiratory syndrome coronavirus 2, Vero, read-out: anti-SARS-CoV-2 infection activity in cell culture, IC50

SMILES: O=C(Oc1cncc(Cl)c1)c1sccc1Cl [WNN2048-F004]
- IC50: 21.3 µM
